From article PMC12214610 come the findings set out here.

Some targets named below: ACLY (UniProt P53396); DCTN2 (UniProt Q13561); TLN1 (UniProt Q9Y490); CCT3 (UniProt P49368); CCT8 (UniProt P50990); COPS7B (UniProt Q9H9Q2); AP1M1 (UniProt Q9BXS5); CHMP1B (UniProt Q7LBR1); CHMP2B (UniProt Q9UQN3); VTA1 (UniProt Q9NP79); CALR (UniProt P27797); AP2M1 (UniProt Q96CW1); EIF3I (UniProt Q13347); CCT2 (UniProt P78371); CCT4 (UniProt P50991); ERP44 (UniProt Q9BS26); CLTC (UniProt Q00610); PDCL3 (UniProt Q9H2J4); CCT7 (UniProt Q99832); DDX1 (UniProt Q92499); RTRAF (UniProt Q9Y224); CHMP1A (UniProt Q9HD42); CHMP3 (UniProt Q9Y3E7); EEF1D (UniProt P29692); RTCB (UniProt Q9Y3I0); SPTAN1 (UniProt Q13813); LGALS1 (UniProt P09382); NDRG1 (UniProt Q92597); HYOU1 (UniProt Q9Y4L1); PDIA6 (UniProt Q15084); VPS16 (UniProt Q9H269); LDHB (UniProt P07195); PDIA3 (UniProt P30101); YWHAZ (UniProt P63104); YWHAE (UniProt P62258); VTI1A (UniProt Q96AJ9); VPS18 (UniProt Q9P253); UCKL1 (UniProt Q9NWZ5); SEPTIN11 (UniProt Q9NVA2); MYH10 (UniProt P35580); SRP9 (UniProt P49458); LPP (UniProt Q93052); YKT6 (UniProt O15498); VBP1 (UniProt P61758); RAN (UniProt P62826); LUZP1 (UniProt Q86V48).
UniProt Q9UQN3, sequence (Q9UQN3 whole entry): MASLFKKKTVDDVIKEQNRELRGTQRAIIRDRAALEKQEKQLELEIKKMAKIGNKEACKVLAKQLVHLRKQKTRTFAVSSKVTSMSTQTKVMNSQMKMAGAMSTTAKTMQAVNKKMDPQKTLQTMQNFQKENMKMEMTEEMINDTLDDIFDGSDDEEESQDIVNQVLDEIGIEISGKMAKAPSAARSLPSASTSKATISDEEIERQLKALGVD
UniProt Q96AJ9, sequence (Q96AJ9 whole entry): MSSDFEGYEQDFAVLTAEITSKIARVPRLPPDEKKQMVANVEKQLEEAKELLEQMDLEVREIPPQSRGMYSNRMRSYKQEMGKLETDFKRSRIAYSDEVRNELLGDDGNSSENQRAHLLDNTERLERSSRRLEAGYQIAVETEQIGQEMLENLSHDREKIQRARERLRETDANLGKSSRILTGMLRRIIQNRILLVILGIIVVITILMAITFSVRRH
UniProt Q99832, sequence (Q99832 whole entry): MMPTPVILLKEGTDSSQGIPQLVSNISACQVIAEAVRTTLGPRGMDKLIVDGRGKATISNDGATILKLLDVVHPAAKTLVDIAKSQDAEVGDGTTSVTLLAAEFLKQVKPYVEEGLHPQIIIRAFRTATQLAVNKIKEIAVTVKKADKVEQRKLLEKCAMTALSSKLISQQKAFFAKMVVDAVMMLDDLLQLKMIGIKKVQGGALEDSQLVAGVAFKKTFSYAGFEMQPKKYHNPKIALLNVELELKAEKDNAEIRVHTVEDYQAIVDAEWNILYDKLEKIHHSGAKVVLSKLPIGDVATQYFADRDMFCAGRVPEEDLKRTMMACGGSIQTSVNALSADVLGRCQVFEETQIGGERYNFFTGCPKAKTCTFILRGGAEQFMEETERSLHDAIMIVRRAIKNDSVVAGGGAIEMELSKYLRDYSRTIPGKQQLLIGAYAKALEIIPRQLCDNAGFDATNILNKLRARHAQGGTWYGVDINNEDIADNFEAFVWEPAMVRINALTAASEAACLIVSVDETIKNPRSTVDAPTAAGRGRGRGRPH
UniProt P78371, sequence (P78371 whole entry): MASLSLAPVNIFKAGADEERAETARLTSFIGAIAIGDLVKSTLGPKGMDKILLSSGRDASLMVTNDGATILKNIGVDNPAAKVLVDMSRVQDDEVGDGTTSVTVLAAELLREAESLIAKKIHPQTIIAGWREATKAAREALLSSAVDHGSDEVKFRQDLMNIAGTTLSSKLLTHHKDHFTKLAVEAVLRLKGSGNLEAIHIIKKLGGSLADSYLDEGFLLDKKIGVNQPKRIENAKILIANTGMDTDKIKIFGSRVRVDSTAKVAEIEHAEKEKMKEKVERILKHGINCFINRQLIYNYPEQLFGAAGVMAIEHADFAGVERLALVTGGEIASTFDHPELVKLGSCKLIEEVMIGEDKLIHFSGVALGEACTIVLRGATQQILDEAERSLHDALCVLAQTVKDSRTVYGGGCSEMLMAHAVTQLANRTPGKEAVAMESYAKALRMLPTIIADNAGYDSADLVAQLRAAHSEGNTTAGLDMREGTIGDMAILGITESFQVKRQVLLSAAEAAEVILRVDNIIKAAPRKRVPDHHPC

Common to all, as to conditions: virion

Some entries of the source have several records that differ or are many. The other results are left out here. The source may hold further records. Some entries list several cross-links; each record is another pair of residues.

DCTN3, sequence (O75935 whole entry): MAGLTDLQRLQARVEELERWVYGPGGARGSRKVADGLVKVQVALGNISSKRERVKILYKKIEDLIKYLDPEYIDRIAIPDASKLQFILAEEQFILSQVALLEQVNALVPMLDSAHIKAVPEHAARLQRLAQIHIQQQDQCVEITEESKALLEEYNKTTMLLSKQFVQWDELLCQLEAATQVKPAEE
STX16, sequence (O14662 whole entry): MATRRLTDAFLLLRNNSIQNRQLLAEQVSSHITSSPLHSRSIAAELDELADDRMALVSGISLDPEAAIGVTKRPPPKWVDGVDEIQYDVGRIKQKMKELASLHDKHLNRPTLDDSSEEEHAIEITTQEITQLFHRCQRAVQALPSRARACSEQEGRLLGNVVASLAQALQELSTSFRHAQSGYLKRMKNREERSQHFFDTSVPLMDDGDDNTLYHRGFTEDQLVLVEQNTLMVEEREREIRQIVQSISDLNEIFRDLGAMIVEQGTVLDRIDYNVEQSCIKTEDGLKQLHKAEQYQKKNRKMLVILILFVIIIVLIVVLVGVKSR
HSPA5, sequence (P11021 whole entry): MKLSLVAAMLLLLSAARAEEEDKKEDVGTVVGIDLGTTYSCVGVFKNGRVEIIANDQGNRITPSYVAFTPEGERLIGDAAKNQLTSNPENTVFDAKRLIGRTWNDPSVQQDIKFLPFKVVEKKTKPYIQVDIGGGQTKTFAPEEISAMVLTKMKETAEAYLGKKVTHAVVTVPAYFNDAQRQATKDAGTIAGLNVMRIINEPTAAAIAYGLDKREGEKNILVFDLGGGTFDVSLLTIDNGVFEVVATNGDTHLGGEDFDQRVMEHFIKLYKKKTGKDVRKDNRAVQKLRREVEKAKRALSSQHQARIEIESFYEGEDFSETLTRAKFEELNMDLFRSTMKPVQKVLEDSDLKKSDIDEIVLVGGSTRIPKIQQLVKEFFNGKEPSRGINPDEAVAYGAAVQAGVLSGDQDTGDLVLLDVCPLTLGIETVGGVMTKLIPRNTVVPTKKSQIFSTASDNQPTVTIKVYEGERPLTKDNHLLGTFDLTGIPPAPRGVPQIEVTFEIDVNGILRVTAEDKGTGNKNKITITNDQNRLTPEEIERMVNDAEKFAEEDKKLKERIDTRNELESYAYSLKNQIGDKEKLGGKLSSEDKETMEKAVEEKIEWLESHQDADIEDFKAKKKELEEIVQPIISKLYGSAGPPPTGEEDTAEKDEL
CCT8, sequence (P50990 whole entry): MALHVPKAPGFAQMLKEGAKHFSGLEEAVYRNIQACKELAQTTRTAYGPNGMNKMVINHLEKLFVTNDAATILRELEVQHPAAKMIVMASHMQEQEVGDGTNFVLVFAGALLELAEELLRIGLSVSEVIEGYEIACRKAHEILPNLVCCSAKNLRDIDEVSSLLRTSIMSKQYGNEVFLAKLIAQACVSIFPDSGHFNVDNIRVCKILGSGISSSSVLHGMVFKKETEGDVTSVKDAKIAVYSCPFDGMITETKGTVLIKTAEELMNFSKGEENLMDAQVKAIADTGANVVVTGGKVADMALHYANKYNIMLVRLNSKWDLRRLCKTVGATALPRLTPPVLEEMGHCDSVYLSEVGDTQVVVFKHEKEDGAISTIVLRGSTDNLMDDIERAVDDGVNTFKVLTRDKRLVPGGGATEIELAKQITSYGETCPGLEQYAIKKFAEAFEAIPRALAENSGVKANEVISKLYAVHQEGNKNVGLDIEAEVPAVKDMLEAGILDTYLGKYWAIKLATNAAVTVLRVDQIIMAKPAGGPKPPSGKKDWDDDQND
CCT8, P50990, sequence (P50990 whole entry): as above
CCT4, P50991, sequence (P50991 whole entry): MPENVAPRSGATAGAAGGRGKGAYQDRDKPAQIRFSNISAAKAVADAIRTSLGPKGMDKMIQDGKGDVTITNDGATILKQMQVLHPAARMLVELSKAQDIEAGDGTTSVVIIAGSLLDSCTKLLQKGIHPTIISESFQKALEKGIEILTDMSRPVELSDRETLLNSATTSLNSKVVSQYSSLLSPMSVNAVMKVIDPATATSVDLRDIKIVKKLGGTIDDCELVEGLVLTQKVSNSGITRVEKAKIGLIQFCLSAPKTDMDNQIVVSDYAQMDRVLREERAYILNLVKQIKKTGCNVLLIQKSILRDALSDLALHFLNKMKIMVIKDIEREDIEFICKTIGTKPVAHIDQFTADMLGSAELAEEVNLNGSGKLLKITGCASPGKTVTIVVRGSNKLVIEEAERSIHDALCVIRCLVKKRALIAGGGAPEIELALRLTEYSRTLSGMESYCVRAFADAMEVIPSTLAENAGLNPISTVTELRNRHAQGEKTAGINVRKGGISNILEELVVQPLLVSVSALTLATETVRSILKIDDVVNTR
CCT4, sequence (P50991 whole entry): as above
CCT3, sequence (P49368 whole entry): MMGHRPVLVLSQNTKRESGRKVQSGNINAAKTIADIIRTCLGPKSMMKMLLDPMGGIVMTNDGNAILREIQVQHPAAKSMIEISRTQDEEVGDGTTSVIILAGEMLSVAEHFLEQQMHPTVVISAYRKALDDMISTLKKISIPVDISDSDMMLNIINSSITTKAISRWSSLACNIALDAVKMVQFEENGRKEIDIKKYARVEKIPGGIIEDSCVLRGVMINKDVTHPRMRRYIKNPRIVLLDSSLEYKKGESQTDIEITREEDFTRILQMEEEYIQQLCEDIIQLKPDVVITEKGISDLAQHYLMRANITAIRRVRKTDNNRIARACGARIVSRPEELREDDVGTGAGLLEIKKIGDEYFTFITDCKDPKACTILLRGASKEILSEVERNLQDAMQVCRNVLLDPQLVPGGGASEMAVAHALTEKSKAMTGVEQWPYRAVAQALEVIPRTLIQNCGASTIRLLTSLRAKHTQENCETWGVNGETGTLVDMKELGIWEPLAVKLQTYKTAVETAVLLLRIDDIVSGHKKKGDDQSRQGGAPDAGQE
CCT3, P49368, sequence (P49368 whole entry): as above
EEF1G, sequence (P26641 whole entry): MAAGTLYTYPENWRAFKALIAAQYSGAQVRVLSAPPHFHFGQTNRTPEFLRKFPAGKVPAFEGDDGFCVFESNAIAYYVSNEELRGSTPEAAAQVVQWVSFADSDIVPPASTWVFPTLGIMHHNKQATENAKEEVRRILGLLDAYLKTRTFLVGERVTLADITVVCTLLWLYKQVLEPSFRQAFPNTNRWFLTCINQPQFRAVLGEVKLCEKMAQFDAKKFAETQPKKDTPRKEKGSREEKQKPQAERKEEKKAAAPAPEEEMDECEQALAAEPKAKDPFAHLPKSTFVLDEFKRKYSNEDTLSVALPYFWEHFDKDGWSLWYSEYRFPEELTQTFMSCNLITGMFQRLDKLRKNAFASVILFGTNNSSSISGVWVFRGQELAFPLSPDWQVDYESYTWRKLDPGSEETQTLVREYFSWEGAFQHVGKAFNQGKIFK

For S100A6, P06703, the cross-linked residues entry was “K47 - K780 and K47 - K836 and K47 - K978” with ACLY; “K47 - K188 and K47 - K297 and K47 - K308” in the experiment with DCTN2; “K26 - K1654 and K47 - K1544” in the experiment with TLN1.

Turning to CCT6A, P40227, the cross-linked residues result with CCT3 was “K10 - K21 and K10 - K31 and K10 - K78 and K530 - K78”; with CCT8 it was “K10 - K20 and K199 - K326 and K199 - K400 and K251 - K326 and K307 - K326 and K377 - K400”.

For COPS5, Q92905, the cross-linked residues result in the experiment with COPS7B was “K180 - K199 and K309 - K199”.

AP1S1, P61966: in the experiment with AP1M1, the cross-linked residues entry was “K26 - K370 and K26 - K373”.

As to CHMP2A, O43633, the cross-linked residues entry in the experiment with CHMP1B was “K89 - K16 and K124 - K87 and K124 - K90”; in the experiment with CHMP2B it was “K52 - K180 and K52 - K195 and K89 - K63 and K94 - K37”.

As for VPS4B, O75351, the cross-linked residues entry was “K53 - K180 and K53 - K195” with CHMP2B; “K61 - K29 and K422 - K274” with VTA1.

On to PPIB, P23284, for which the cross-linked residues entry with CALR is “K116 - K43 and K116 - K360”.

With AP2B1, P63010, the cross-linked residues result with AP2M1 is “K282 - K219 and K282 - K224 and K282 - K281 and K322 - K281”.

On to PDCD5, O14737, for which the cross-linked residues entry in the experiment with CCT3 is “K97 - K529 and K105 - K529”.

In the case of EIF3B, P55884, the cross-linked residues entry with EIF3I is “K693 - K282 and K729 - K282”.

Regarding ACTR1A, P61163, in the experiment with DCTN2, the cross-linked residues result was “K230 - K65 and K361 - K65 and K361 - K119 and K361 - K125 and K361 - K132”.

For the substance CCT5, P48643, the cross-linked residues result with CCT2 is “K176 - K135 and K392 - K82 and K496 - K135”; in the experiment with CCT4, “K42 - K21 and K42 - K126 and K214 - K489”.

Turning to CCT4, P50991, the cross-linked residues entry in the experiment with CCT2 was “K21 - K40 and K21 - K82 and K21 - K119 and K21 - K120 and K21 - K441 and K21 - K522 and K29 - K40 and K29 - K120 and K29 - K522 and K42 - K46 and K139 - K46 and K395 - K154 and K489 - K135 and K531 - K46”.

On to PRDX4, Q13162, for which the cross-linked residues result with ERP44 is “K263 - K106 and K269 - K303”.

Take CLTA, P09496: the cross-linked residues entry with CLTC is “K112 - K1264 and K156 - K1264 and K158 - K1501 and K229 - K1612 and K242 - K1516 and K242 - K1535”.

DCTN3, O75935: the cross-linked residues result with DCTN2 was “K32 - K229 and K60 - K297 and K60 - K308 and K66 - K297”.

Regarding CCT3, P49368, the cross-linked residues result with CCT8 was “K21 - K16 and K21 - K20 and K21 - K37 and K31 - K20”; with PDCL3, “K203 - K214 and K249 - K90 and K381 - K214 and K529 - K148”.

As to TCP1, P17987, the cross-linked residues result with CCT3 is “K73 - K528 and K73 - K529 and K199 - K234 and K199 - K317”; with CCT4 it was “K126 - K21 and K126 - K55 and K126 - K489 and K532 - K65 and K541 - K21”; with CCT7, “K109 - K109 and K111 - K440”.

As for FAM98A, Q8NCA5, the cross-linked residues entry with DDX1 was “K240 - K687 and K240 - K702 and K248 - K702 and K260 - K693”; with RTRAF, “K132 - K108 and K133 - K115 and K189 - K176 and K245 - K234 and K248 - K234 and K253 - K218 and K260 - K108 and K277 - K171 and K277 - K176”.

As for CLTB, P09497, in the experiment with CLTC, the cross-linked residues entry was “K149 - K1264 and K151 - K1501 and K204 - K1246 and K204 - K1516 and K204 - K1535 and K207 - K1516 and K207 - K1612 and K210 - K1612 and K223 - K1535”.

Consider CCT8, P50990, for which the cross-linked residues result with CCT7 is “K225 - K366 and K296 - K320 and K459 - K430”.

On to CHMP1B, Q7LBR1, for which the cross-linked residues entry in the experiment with CHMP1A is “K30 - K40 and K42 - K27 and K42 - K56 and K59 - K40 and K90 - K98 and K97 - K107 and K110 - K94”; in the experiment with CHMP2B, “K16 - K63 and K16 - K81 and K27 - K63 and K42 - K55 and K42 - K59 and K42 - K180 and K87 - K130 and K90 - K130”; with CHMP3, “K16 - K65 and K90 - K132”.

Take EEF1G, P26641: in the experiment with EEF1D, the cross-linked residues result is “K52 - K117 and K219 - K107 and K220 - K17 and K220 - K107 and K227 - K17 and K241 - K17”.

In the case of DDX1, Q92499, in the experiment with RTCB, the cross-linked residues entry is “K636 - K366 and K693 - K206 and K702 - K206 and K702 - K366”.

On to RTRAF, Q9Y224, for which the cross-linked residues result with RTCB is “K176 - K245 and K185 - K492”.

Regarding SPTBN1, Q01082, the cross-linked residues result with SPTAN1 was “K292 - K2404 and K659 - K1911 and K997 - K1646 and K1249 - K1369 and K2054 - K441”.

As for PFN1, P07737, in the experiment with LGALS1, the cross-linked residues result is “K91 - K29 and K105 - K29”.

As for ATP1A1, P05023, the cross-linked residues result with NDRG1 is “K444 - K280 and K458 - K280”.

HSPA5, P11021: the cross-linked residues result is “K370 - K883 and K376 - K883” with HYOU1; “K287 - K150 and K523 - K150 and K523 - K159 and K523 - K245 and K579 - K150” with PDIA6.

With VPS33A, Q96AX1, in the experiment with VPS16, the cross-linked residues result was “K126 - K554 and K423 - K668”.

LDHA, P00338: the cross-linked residues entry with LDHB was “K14 - K156 and K224 - K7”.

Consider CALR, P27797, for which, in the experiment with PDIA3, the cross-linked residues entry was “K153 - K104 and K360 - K466”.

With YWHAQ, P27348, in the experiment with YWHAZ, the cross-linked residues entry was “K9 - K85 and K85 - K9”.

YWHAG, P61981: the cross-linked residues result in the experiment with YWHAE was “K69 - K12 and K78 - K12”.

NAPA, P54920: the cross-linked residues result with VTI1A was “K285 - K35 and K285 - K89”.

On to VPS11, Q9H270, for which, in the experiment with VPS18, the cross-linked residues result is “K811 - K412 and K909 - K481”.

Take UPRT, Q96BW1: the cross-linked residues result with UCKL1 was “K111 - K328 and K169 - K343”.

For the substance SEPTIN2, Q15019, the cross-linked residues entry in the experiment with SEPTIN11 was “K190 - K65 and K249 - K190”.

Take MYH9, P35579: in the experiment with MYH10, the cross-linked residues entry was “K1330 - K1345 and K1492 - K1596 and K1669 - K1925 and K1775 - K1809 and K1775 - K1874 and K1867 - K1724 and K1918 - K1869”.

Consider SRP14, P37108, for which, in the experiment with SRP9, the cross-linked residues result was “K55 - K76 and K74 - K76 and K78 - K76”.

For VCL, P18206, in the experiment with LPP, the cross-linked residues entry was “K768 - K108 and K784 - K108”.

For the substance STX16, O14662, the cross-linked residues entry was “K185 - K35 and K287 - K176 and K297 - K176” with VTI1A; “K185 - K103 and K281 - K186” in the experiment with YKT6.

As to PFDN6, O15212, in the experiment with VBP1, the cross-linked residues result is “K66 - K114 and K122 - K189”.

Consider HSPA8, P11142, for which the cross-linked residues result with RAN is “K159 - K28 and K159 - K37”.

Take YWHAB, P31946: the cross-linked residues entry with YWHAE is “K70 - K12 and K77 - K12”.

DAPK3, O43293: the cross-linked residues result with LUZP1 is “K400 - K150 and K425 - K187”.

Consider YWHAE, P62258, for which the cross-linked residues entry with YWHAZ is “K12 - K68 and K12 - K75 and K29 - K85”.
